Measured values published in patent US20250161477A1, “NOVEL METHODS OF THERAPY” (BIVICTRIX LIMITED, priority 2022, published 2025).

How the values were obtained:
human CD33 (human) = human CD33 (human) (UniProt P20138); assay: cell-based or functional assay
human CD56 (human) = human CD56 (human) (UniProt P13591); assay: cell-based or functional assay
Sequence of UniProt P13591 (P13591 other isoform, or with tags, fused parts or gaps limits assumed): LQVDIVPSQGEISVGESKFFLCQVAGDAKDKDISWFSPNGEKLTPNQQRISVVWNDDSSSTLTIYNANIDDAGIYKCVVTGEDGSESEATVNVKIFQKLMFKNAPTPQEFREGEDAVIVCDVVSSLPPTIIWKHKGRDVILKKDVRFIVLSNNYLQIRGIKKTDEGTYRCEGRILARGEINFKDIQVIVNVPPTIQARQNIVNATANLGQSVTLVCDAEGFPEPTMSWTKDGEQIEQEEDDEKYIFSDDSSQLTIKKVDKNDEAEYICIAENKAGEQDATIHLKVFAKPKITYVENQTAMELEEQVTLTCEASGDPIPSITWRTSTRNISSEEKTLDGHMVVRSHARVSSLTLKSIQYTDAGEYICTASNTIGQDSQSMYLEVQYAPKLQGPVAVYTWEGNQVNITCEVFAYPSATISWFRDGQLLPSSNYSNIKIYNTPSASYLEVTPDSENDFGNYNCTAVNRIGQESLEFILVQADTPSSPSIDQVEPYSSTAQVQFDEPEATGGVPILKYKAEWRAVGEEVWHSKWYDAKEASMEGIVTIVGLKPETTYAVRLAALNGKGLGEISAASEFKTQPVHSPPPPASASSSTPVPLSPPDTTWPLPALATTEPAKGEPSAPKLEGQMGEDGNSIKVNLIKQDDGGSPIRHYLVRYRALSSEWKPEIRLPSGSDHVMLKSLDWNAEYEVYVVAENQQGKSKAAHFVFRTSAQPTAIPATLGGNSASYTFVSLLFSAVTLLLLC

Sequence of UniProt P20138 (P20138 18-364 R69G limits assumed): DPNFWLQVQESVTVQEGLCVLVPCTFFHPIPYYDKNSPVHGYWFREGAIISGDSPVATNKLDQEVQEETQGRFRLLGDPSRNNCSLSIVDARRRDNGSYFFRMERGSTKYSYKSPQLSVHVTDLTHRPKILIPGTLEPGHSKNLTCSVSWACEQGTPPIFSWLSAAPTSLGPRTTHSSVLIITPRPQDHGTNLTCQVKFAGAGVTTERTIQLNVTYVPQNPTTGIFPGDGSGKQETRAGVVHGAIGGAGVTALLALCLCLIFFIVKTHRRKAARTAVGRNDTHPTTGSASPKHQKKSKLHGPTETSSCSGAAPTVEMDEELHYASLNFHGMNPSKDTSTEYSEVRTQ

B1: BVX04-b0097-AB6A-1 (CD33xCD56 V format ADC) (bispecific antibody, not shown: large carriers)
heavy: EVQLVQSGAEVKKPGSSVKVSCKASGYTITDSNIHWVRQAPGQSLEWIGYIYPYNGGTDYNQKFKNRATLTVDNPTNTAYMELSSLRSEDTAFYYCVNGNPWLAYWGQGTLVTV[letters of human IgG1 constant region with changes not shown]
light: DIQLTQSPSTLSASVGDRVTIICRASESLDNYGIRFLTWFQQKPGKAPKLLMYAASNQGSGVPSRFSGSGSGTEFTLTISSLQPDDFATYYCQQTKEVPWSFGQGTKLEIK
chain: DVVMTQSPLSLPVTPGEPASISCRSSQSLLHSNGYNFLDWYLQKPGQSPQLLIYLGSNRASGVPDRFSGSGSGTDFTLKISRVEADDVGVYYCMQSLQTPWTFGHGTKVEIKGGGGSGGGGSGGGGSGGGGSEVQLVQSGAEVKKPGSSVKVSCKASGGTFTGYYMHWVRQAPGQGLEWMGWINPNSGGTNYAQKFQGRVTMTRDTSISTAYMELSRLRSDDTAVYYCARDLSSGYSGYFDYWGQGTLVTVSSGGGGS[letters of human IgG1 Fc with changes not shown]
Question: How did the Mean IC50, cell kill assay (WST-1, 96 h, with human serum) on KASUMI-3 cells (CD33+/CD56+) (human CD33 (human)) turn out when B1 was run?
Answer: The Mean IC50, cell kill assay (WST-1, 96 h, with human serum) on KASUMI-3 cells (CD33+/CD56+) was 0.15 nM.

Question: What about the Mean IC50, cell kill assay (WST-1, 96 h, with human serum) on SET-2 cells (CD33+/CD56-) (human CD33 (human)) of the same binder?
Answer: Its Mean IC50, cell kill assay (WST-1, 96 h, with human serum) on SET-2 cells (CD33+/CD56-) is > 30 nM.

Question: And the Mean IC50, cell kill assay (WST-1, 96 h, with human serum) on KASUMI-3 cells (CD33+/CD56+) (human CD56 (human))?
Answer: The Mean IC50, cell kill assay (WST-1, 96 h, with human serum) on KASUMI-3 cells (CD33+/CD56+) was 0.15 nM.

Question: What about the Mean IC50, cell kill assay (WST-1, 96 h, with human serum) on KE-37 cells (CD33-/CD56+) (human CD56 (human)) of the same binder?
Answer: The Mean IC50, cell kill assay (WST-1, 96 h, with human serum) on KE-37 cells (CD33-/CD56+) was > 30 nM.
